Assay results from ChEMBL document CHEMBL4888484, “Replenishing the malaria drug discovery pipeline: Screening and hit evaluation of the MMV Hit Generation Library 1 (HGL1) against asexual blood stage Plasmodium falciparum ,using a nano luciferase reporter read-out” (2022).
About 540 (0.36%) of roughly 150,000 compounds showed an effect of 50% or more. The list shows a part of the results.

system: Plasmodium falciparum; assay: Primary screen in NF54 nanoGlo assay, in single point, at 2uM, 72h; a lower Z score goes with more inhibition; type: functional, Erythrocyte; settings: timepoint 72 hour

Row | Structure (SMILES) | % Inhibition | Z score
1 | Cc1cc(NCc2cccnc2N2CCN(c3ccccn3)CC2)nc(N)n1 | -3% | 0.37
2 | CCOc1ccc(N2C[C@@H](c3nnc(NC(=O)CCC4CCCC4)o3)CC2=O)cc1 | -6% | 0.88
3 | O=C(c1ccccc1)N1CCN(C[C@H](O)c2ccco2)CC1 | -10% | 1.99
4 | O=C(O)CC[C@H]1CCCN(Cc2ccoc2)C1 | 6% | -1.2
5 | CCn1ccnc1CN1CC[C@@]2(CCCN(CC3CCCCC3)C2=O)C1 | -7% | 0.99
6 | O=C(NCCc1c[nH]cn1)c1ccc(NC(=O)C2CCC2)cc1 | -10% | 1.84
7 | Cc1ccc(NC(=O)Cc2nnc(-c3cnccn3)o2)c(C)c1 | -13% | 1.26
8 | O=C([C@H]1CCc2nccn2C1)N1CCCN(CC2CCC2)CC1 | 4% | -0.59
9 | Cc1cc(Cl)ccc1S(=O)(=O)N1CCn2c(nn(CC3CC3)c2=O)C1 | -10% | 1.78
10 | CS(=O)(=O)NCCc1cccc(Cl)c1 | -4% | 0.84
11 | O=c1n(Cc2ccc3c(c2)OCO3)nc2c(S(=O)(=O)N3CCOCC3)cccn12 | 3% | -0.56
12 | Cc1cc(Oc2cnn(C)c(=O)c2Nc2cccc(C(=O)NCc3ccco3)c2)ccc1Cl | -25% | 2.23
13 | CCOc1ncccc1-c1ncccc1C(=O)N1CCCC1 | -3% | 0.46
14 | COc1ccccc1CCN1CC(O)=C(c2nc(C)cs2)C1=N | -7% | 0.7
15 | CC(C)N(Cc1nccn1C)C(=O)c1cccc(-c2cn[nH]c2)c1 | 2% | -0.36
16 | Cc1nc(CN2CCC(N3C[C@H](COc4ccc(F)cc4)OCC3=O)CC2)n(C)n1 | 0% | -0.01
17 | O=C(CCc1cc2n(n1)CCNC2)Nc1cc(F)cc2c1NC(=O)CC2 | -13% | 1.56
18 | Cc1nc(CN2CCN(Cc3c(C)cccc3C)CC2)n[nH]1 | -1% | 0.17
19 | COc1cc(-c2nc(Cn3cnc4ccccc43)c(C)o2)cc2c1OCO2 | -10% | 1.37
20 | O=C1C2ON(c3ccccc3)C(c3ccncc3)C2C(=O)N1c1ccc(Cl)c(Cl)c1 (stereo not drawn) | -17% | 1.86
21 | CCC(NC(=O)C1CC12CCOCC2)c1ccc(Cl)cc1 (stereo not drawn) | -9% | 1.8
22 | CC[C@]1(O)CCN(c2nc(C(N)=O)cs2)C[C@@H]1O | 1% | -0.2
23 | O=C(c1cc2sccc2[nH]1)N1CC[C@@]2(CCCN(CC3CC3)C2=O)C1 | -10% | 1.7
24 | O=S(=O)(CC1CCCC1)NCC1(CN2CCCC2)CC1 | -13% | 1.63
25 | N#CCC1CCN(C(=O)Nc2ccc3nscc3c2)CC1 | -2% | 0.26
26 | C[C@H](c1cccc(O)c1)c1nc(C2CCC2)no1 | 7% | -0.78
27 | Cc1cnn(Cc2ccccc2Cl)c1NC(=O)Cc1nonc1C | -9% | 0.9

Row | Structure (SMILES) | % Inhibition | Z score
28 | Cc1cc(N[C@@H]2C=C[C@H](CO)C2)n2ncnc2n1 | -6% | 1.1
29 | c1csc([C@H](NCc2nc3ccccc3s2)c2ccc3c(c2)CCC3)c1 | -4% | 0.69
30 | O=C(CCN1CCCC1)NC1(C2CCCC2)CC1 | -8% | 1.38
31 | Nc1nc2c(o1)oc1nc(-c3ccccc3)cc(-c3ccccc3)c12 | -7% | 1.29
32 | COc1ccc(C)cc1NC(=O)CN1C(=O)NC2(CCCCCCC2)C1=O | 1% | -0.12
33 | CCc1cc(NCc2cn([C@H]3CCOC3)nn2)nc(CC)n1 | -3% | 0.32
34 | CCCn1cnnc1CN(C)Cc1cc(OC)c(OC)cc1F | 2% | -0.24
35 | O=C(CCOc1ccccc1Br)NCC1CCCC1O (stereo not drawn) | -14% | 2.39
36 | O=C(Nc1cncc(F)c1)N[C@H]1C[C@@H](O)C1 | -4% | 0.31
37 | Cc1nc2nc(-c3ccco3)nn2c(N2CCN(c3ccccc3F)CC2)c1C | 0% | -0.03
38 | O=S(=O)(NCc1cc(C(F)(F)F)on1)N1CCCCC1 | 0% | -0.01
39 | CO[C@@H]1C[C@@H](C(=O)N2CC(C)N(Cc3ccccc3)c3ccccc32)N(C(=O)OCc2ccccc2)C1 (stereo partly drawn) | 0% | -0.04
40 | COc1ccc(CN2CC[C@H](NC(=O)C3CCC3)C2)cn1 | -10% | 1.35
41 | C[C@H](NC(=O)c1nccnc1C(=O)N1CCCCC1)c1ncnn1C | 2% | -0.29
42 | CC(C)CCS(=O)(=O)N1CCC2C(CCC(=O)N2C2CC2)C1 (stereo not drawn) | -12% | 1.91
43 | COc1ccccc1CNC(=O)c1ccc(C)nc1C1CCN(Cc2cc(C)c(C)o2)CC1 | -11% | 1.16
44 | Cc1c(CN2CCCn3nc(CNC(=O)C4CCC4)cc3C2)oc2ccccc12 | -17% | 1.55
45 | CCn1ccnc1[C@H]1CCCN(C(=O)c2cnc(-c3cccnc3)nc2C)C1 | -5% | 0.94
46 | O=C(Nc1ccn(Cc2ccccc2F)n1)c1ccc(COc2ccc(Cl)cc2Cl)o1 | -36% | 4.24
47 | C#CCN(Cc1ccco1)C(=O)C[C@]1(c2ccc(OC)cc2)CC(=O)N(C2CC2)C1=O | -14% | 2.32
48 | C1=CCN(c2nc(-c3ccncc3)nc3c2CCNCC3)C1 | -5% | 1.03
49 | COc1c(C(=O)Nc2cccc(F)c2)oc2ccc(NC(=O)C3CCCCC3)cc12 | -8% | 1.57
50 | Cc1nc(C(C)C)ncc1C(=O)N1CC[C@@H](CO)[C@@H](O)C1 | -12% | 1.42
51 | CN(C)c1ccc(C(=O)N2CCC(Cn3nc4c(cc3=O)CCC4)CC2)nn1 | -6% | 0.85
52 | CN(C[C@H]1CC(=O)N(C(C)(C)C)C1)C(=O)c1cnc(N)s1 | -7% | 1.41
53 | CCN(CCOC(=O)Nc1ccccc1F)c1ccccc1 | 3% | -0.5
54 | COc1ccccc1-c1cc2nc(C)cc(N3CCN(C4CCCCC4)CC3)n2n1 | -7% | 1.4
